In publication PMC12136788 one finds binding signal data, which are given here for 22 molecules.

This is one part of the list.

Sequences and labels used below:
B1: chr2:206003504:206003605:-|3pUTR|ENSG00000114933|msi1|FALSE|unique (ssRNA)
RNA: GGGAGUUCUACAGUCCGACGAUCGGUCGUGUGAGUAGCACAACCUUUUUCUGCUAAAAGUUAGCCCAAGAAGAAACAGAACAUAGAAAGCUUGGAUUCCCGUCAGUGAGGUAGGGAUGUCCUAAAAAGCUUGCCUGGGAUGACCAACAGAGGAUUGAGCAUCA
B2: ENSG00000196510:stop:overlap|stop_codon|ENSG00000196510|stop_codon|NA|stop_codon (ssRNA)
RNA: GGGAGUUCUACAGUCCGACGAUCUCCUUGUAGCUGUCAAUGAGUAUCAGGAGGCAAUGGACCAGUAUAGUAUAGCACUAAGGUAGGCACUAGCCUCCCUUGGGGGAAGGCCACUGAGGAGGGUAGAGGAGGCAGUGAGCUGUGCAACAGAGGAUUGAGCAUCA
B3: ENSG00000124766:be:win_801|CDS|ENSG00000124766|bound_else_gene|NA|bound_elsewhere_windowed (ssRNA)
RNA: GGGAGUUCUACAGUCCGACGAUCCUCGGCCUCCGCCUCCUCGGCAGCCUCGGCCUCCGCAGCGCUCGCGGCCCCGGGCAAGCACCUGGCGGAGAAGAAGGUGAAGCGCGUCUACCUGUUCGGCGGCCUGGGCACGUCGUCGUCCAACAGAGGAUUGAGCAUCA
B4: chr12:79451877:79451978:+|3pUTR|ENSG00000067715|msi1|FALSE|unique (ssRNA)
RNA: GGGAGUUCUACAGUCCGACGAUCCCUUCAUUUUUGAUGAGGUGAUUUAAAUUUUGUUUCACUUUGUGUAGUGAAUUCCACAGUAGUUUUCUGAUUGUUGUUAAAAAUGACUUAACAUAUUACACAGAUAUUCAAUAAAAAUGUCAACAGAGGAUUGAGCAUCA
B5: chr1:109011400:109011505:-|CDS|ENSG00000085433|unk|FALSE|unique (ssRNA)
RNA: GGGAGUUCUACAGUCCGACGAUCGUCAUGGUUGCAGAAUUCAUCCCUGCUGAUAGGAAGCUAAGUGAAGCUGGUUUUAAGGCUAGUAACAAUCGUUUAUUUCAGCUUGUAAUGAAAGGCCUGCUUUAUGAAUGCUGUGUAGAACAACAGAGGAUUGAGCAUCA
B6: chr12:6238009:6238110:+|3pUTR|ENSG00000010278|msi1_unk|FALSE|overlapping (ssRNA)
RNA: GGGAGUUCUACAGUCCGACGAUCAUAAAAGCUGAAGUUACUUUAUGUUUGUCUUUUAAUGCUUCAUUCAAUAUUGACAUUUGUAGUUGAGCGGGGGGUUUGGUUUGCUUUGGUUUAUAUUUUUUCAGUUGUUUGUUUUUGCUUCAACAGAGGAUUGAGCAUCA
B7: chr1:54031757:54031935:-|3pUTR|ENSG00000116209|msi1|total|mutant (ssRNA)
RNA: GGGAGUUCUACAGUCCGACGAUCUCCGCUAUGAGCUGAUCAUUGCUCCUUCUCACCUCCUGCCAUGAUACUGUCAGUUACCUCCGUUAACAAGCUGAAUAUUCCGCCGAAAUGAUGCUUCUGCUCAGGAAUGGCCCACAAAUCCAACAGAGGAUUGAGCAUCA
B8: chr15:50499333:50499363:+|3pUTR|ENSG00000138592|msi1_unk|FALSE|overlapping (ssRNA)
RNA: GGGAGUUCUACAGUCCGACGAUCCAGGUACCAUUUAUUUCAAAACAACUUUUUUAGUCUGCUCCAAAGUUAAAAUAAUUAACUAGCUAAGCAUUAUUAUUCGACUGGUCUAAAAACUAUUGUUAUCUUUUUUUUUUCCUUUUCCAACAGAGGAUUGAGCAUCA
B9: ENSG00000070961:be:win_4151|3pUTR|ENSG00000070961|bound_else_gene|NA|bound_elsewhere_windowed (ssRNA)
RNA: GGGAGUUCUACAGUCCGACGAUCGAUGGGAAGCUUCCUUAUAACUGAUGCAGAGAAAAAUUAGUCCUUCAAAUACUGCUGUAUUUUCAGGAAAAAAAAAAAAAGGGGUGUUUCUAUUGAAACUGUACUAAAUUUUUGCCUACACAACAGAGGAUUGAGCAUCA
B10: chr3:183812448:183812549:+|3pUTR|ENSG00000163872|msi1|FALSE|unique (ssRNA)
RNA: GGGAGUUCUACAGUCCGACGAUCUAUUGCAGGUAUCACAGCCUAAAGAAAUUAUCUUUUUGCAAAAGAAAUAUUAAAUGAUUUAGCAGUCUCCACGUGUGUUAAUGUUUCAAACGUGUAUCAUAAUGUGUAUAAUUGUGUAACCAACAGAGGAUUGAGCAUCA
B11: chr3:124966548:124966651:-|3pUTR|ENSG00000173706|unk|FALSE|bound_elsewhere (ssRNA)
RNA: GGGAGUUCUACAGUCCGACGAUCAGGAAGAAUGCAAAGUUCAGUAUUUCAAUACUUUGUAUUUUACUUGAAAUUACCCUUAGUAGCAUCUUUUUUUUCCUGUCUGAAAGCUUUUGUGUGGAUGAGAAGGGACAUUUCAUUUCCCAACAGAGGAUUGAGCAUCA
B12: chr3:196782704:196782805:+|CDS|ENSG00000180370|unk|FALSE|bound_elsewhere (ssRNA)
RNA: GGGAGUUCUACAGUCCGACGAUCAACGGAGAACUGGAAGAUAAGCCUCCAGCACCUCCUGUGCGAAUGAGCAGCACCAUCUUUAGCACUGGAGGCAAAGACCCUUUGUCAGCCAAUCACAGUUUGAAACCUUUGCCCUCUGUUCAACAGAGGAUUGAGCAUCA
B13: chr13:52643008:52643109:+|CDS|ENSG00000139675|unk|FALSE|unique (ssRNA)
RNA: GGGAGUUCUACAGUCCGACGAUCCAUACUGUGAAGGGCCACAACUGUGAAGUUAGAAAAGCCCUGCCAAAGCAAGAGAUGGCUAGUGCUUCAUCCAGCCAAAGAGGUCGAAGGGGUUCUGGAAACUUUGGUGGUGGUCGUGGACAACAGAGGAUUGAGCAUCA
B14: chr11:119045269:119045370:-|3pUTR|ENSG00000149428|msi1|total|mutant (ssRNA)
RNA: GGGAGUUCUACAGUCCGACGAUCUGUGGUUAAAAAUGGAAACUGUUCUCCUCCCCAGCCCCACUCCCUGUUCCCUACCCAUACCGGCCCUAAAUUUGGGAAAAAUCACUAUUAAUUUCUGAAUCCUUUGCCUGUGGGCCGGAACAACAGAGGAUUGAGCAUCA
B15: chr8:72021249:72022905:-|three_prime_utr|ENSG00000104321|control|control|control (ssRNA)
RNA: GGGAGUUCUACAGUCCGACGAUCGCAGAUAUGUUCAAAUUGGACUGGACUUUGAUGAGAUAUAAUCUCAUUAUUUGAAUGGGUAGAAAAUGAAUUUGCUAGAACACACAUUUUUAAUGAAAAGAAGUAAUAAAUGUAACUAUUCAACAGAGGAUUGAGCAUCA
B16: chrX:153907366:153907962:-|three_prime_utr|ENSG00000089820|control|control|control (ssRNA)
RNA: GGGAGUUCUACAGUCCGACGAUCAGGCUUCUCCCGGGGCCCUGGGGCCCCAGCCUCACCCUCAGCUUCCCACCCCCAGGGCCUAGACACGACCCCCAAGCCACACUGAGGUGCCGCUGCUGGAGAUGCGUGCCCCCGGCGGCUCAACAGAGGAUUGAGCAUCA
B17: chr10:30461265:30461366:+|3pUTR|ENSG00000107968|unk|FALSE|unique (ssRNA)
RNA: GGGAGUUCUACAGUCCGACGAUCUCUUUGAGCCUUUAUUGGUAAAUUCUGGUAUACAUUGAAUUCAUUAUAAUUUGGGUGACUAGAACAACUUGAAGAUUGUAGCAAUAAGCUGGACUAGUGUCCUAAAAAUGGCUAACUGAUCAACAGAGGAUUGAGCAUCA
B18: ENSG00000124766:be:win_1951|3pUTR|ENSG00000124766|bound_else_gene|NA|bound_elsewhere_windowed (ssRNA)
RNA: GGGAGUUCUACAGUCCGACGAUCCCCCCCUUUUUUUAAACGCGUGAUGAAGACAGAAGGCUCCGGGGUGACGAAUUUGGCCGAUGGCAGAUGUUUUGGGGGAACGCCGGGACUGAGAGACUCCACGCAGGCGAAUUCCCGUUUCAACAGAGGAUUGAGCAUCA
B19: chr1:37709127:37709197:+|3pUTR|ENSG00000134690|msi1_unk|FALSE|overlapping (ssRNA)
RNA: GGGAGUUCUACAGUCCGACGAUCUGAAGACCAAAUACUGGUUUGGAGACAACUUCCAUGUCUUGCUCUUCUACCUCCCUAGUUAGUGGAAAUUUGGAUAAGGGAACUGUAGGGCCCAGAUUCUGGAGGUUUUAUGUCAUUGGCCAACAGAGGAUUGAGCAUCA
B20: chr2:112646914:112647020:+|CDS|ENSG00000144136|unk|FALSE|unique (ssRNA)
RNA: GGGAGUUCUACAGUCCGACGAUCGCUCAUCCUGGGCUUCAUUAUUGCAUUUGUCUUGGCAUUCUCCGUGGGAGCCAAUGAUGUAGCAAAUUCUUUUGGUACAGCUGUGGGCUCAGGUGUAGUGACCCUGAAGCAAGCCUGCAUCAACAGAGGAUUGAGCAUCA
B21: chr7:33006061:33006162:+|3pUTR|ENSG00000122642|msi1_unk|total|mutant (ssRNA)
RNA: GGGAGUUCUACAGUCCGACGAUCGGCAUCUCAGACCACAAACCGAGAAUUUGAUUCCUCAUUUGCCACAUAAGUCAUCUGCUCCGCUUUUCCUUUCCUUUUUUUUUUUUUUUUUUUUUCUGGAGGCAGAGUCUCCCUUUGUCGCAACAGAGGAUUGAGCAUCA
B22: chr2:149026443:149026544:+|3pUTR|ENSG00000168280|msi1|FALSE|bound_elsewhere (ssRNA)
RNA: GGGAGUUCUACAGUCCGACGAUCGUAAAGUGUGUCCUGUGUACUGCAGAUGUGUGUUCUCUGGGCUUUAUGUAUCUGUACAGUAGCUUUCACAUUAAAAAAAUUGUGGACAAACUUGUCCGGGGGGUUUGAGGGGAGAAUGGUCAACAGAGGAUUGAGCAUCA

In the test the target is MSI1 full-length (mouse, UniProt Q61474 1-362). In words: nsRBNS (natural sequence RNA bind-n-seq); RBNS binding buffer (assumed for nsRBNS): 25 mM Tris pH 7.5, 150 mM KCl, 3 mM MgCl2, 0.01% Triton X-100, 500 ug/ml BSA, 20 U/ml SUPERase-In, 4 C; UNK is unkempt and MSI1 is Musashi-1; names of the RNAs are library labels; protein concentration not given here; high values mean tight binding.
Sequence of UniProt Q61474 (Q61474 whole entry): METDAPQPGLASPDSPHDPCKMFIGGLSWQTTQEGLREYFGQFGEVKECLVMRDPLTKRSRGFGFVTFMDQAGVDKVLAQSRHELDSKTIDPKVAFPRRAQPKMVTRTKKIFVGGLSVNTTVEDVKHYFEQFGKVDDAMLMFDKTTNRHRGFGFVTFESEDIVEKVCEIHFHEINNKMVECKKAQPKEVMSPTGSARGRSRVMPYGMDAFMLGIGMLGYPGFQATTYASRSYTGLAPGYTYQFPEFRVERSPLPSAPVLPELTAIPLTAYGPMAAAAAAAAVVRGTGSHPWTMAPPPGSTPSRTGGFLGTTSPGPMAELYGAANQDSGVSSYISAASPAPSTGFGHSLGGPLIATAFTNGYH
Molecule B1 gave a binding signal of 0.693 enrichment R. For the molecule B2, the binding signal amounted to 0.604 enrichment R. Take B3: the binding signal turned out to be 0.408 enrichment R. The figure for B4 is 0.962 enrichment R; for B5 it is 0.983 enrichment R. The figure for B6 is 2.37 enrichment R; for B7 it is 0.454 enrichment R; for B8 it is 9.19 enrichment R. As to B9, the binding signal amounted to 0.843 enrichment R. The same measure for B10: 0.77 enrichment R; for B11: 0.879 enrichment R; for B12: 0.353 enrichment R. The figure for B13 is 0.428 enrichment R.

In turn, B14 came in with a binding signal of 0.426 enrichment R.

For B15, the binding signal came out at 2.75 enrichment R. The figure for B16 is 0.545 enrichment R. The figure for B17 is 0.636 enrichment R; for B18 it is 0.48 enrichment R. Molecule B19 returned a binding signal of 1.34 enrichment R.

In the case of B20, the binding signal is 0.386 enrichment R. In turn, B21 returned a binding signal of 1.77 enrichment R. Turning to B22, the binding signal was 0.693 enrichment R.
